Laboratory results taken from the supplement of paper PMC10126150.
Sequences with one replicate were seen in a single cluster, so their values are uncertain.

system: ATP; assay: switch fluorescence ratio, 500 uM ATP over buffer (Cy3 cluster intensity, sum of 5 cycles each) (fold (ratio)); higher = stronger signal-on switching upon ATP binding; sequences stand for … in TCGTCGGCAGCGTCAGATGTGTATAAGAGACAGTTTTTTTTTTTTTTTTTTTTTTTTT…TC; settings: aptamer strand: ATP DNA aptamer (quencher-CACCTGGGGGAGTATTGCGGAGGAAGG + anchor), 100 nM annealed; ATP concentration: 500 uM; one replicate
Summary of the method: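 Clusters with intensities outside 100-1000 RFU were excluded. The remaining Cy3-labelled switching-strand clusters on a modified Illumina MiSeq flow-cell had been annealed to 100 nM quencher-labelled ATP aptamer and imaged in selection buffer, then after 15 min with 500 uM ATP at 22 °C, for five cycles separated by NaOH stripping and re-annealing. The fluorescence ratio, averaged per switch-domain sequence, is each cluster's summed target-cycle Cy3 intensity over its summed buffer-cycle Cy3 intensity.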
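Also: ATP exposure 15 min at 22 °C before imaging.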

| Sequence | switch fluorescence ratio |
| --- | --- |
| GAGTAACTCT | 1.01 |
| TTCCGGTGGC | 1.09 |
| GGGCTATCTG | 1.01 |
| GCTCATCCTT | 1.01 |
| TTCATAGGGC | 0.966 |
| ACCTGTGACG | 1.1 |
| TCGTAGAACT | 0.977 |
| TGCGGTTCTG | 1.04 |
| TTAAGGAGGC | 1.02 |
| AATGTTTTCC | 1.05 |
| TGGACTAAGG | 0.963 |
| TGTTGCGTAA | 0.996 |
| CTCGCTATG | 1.11 |
| GCTGGTTCGG | 1 |
| GTGATAGAGA | 0.984 |
| AATTATAAGT | 1.01 |
| TGGTAGGTTT | 1.01 |
| GGTCCTATAG | 0.98 |
| AGACAATGGT | 1.02 |
| AGCTGACGTG | 1.02 |
| TATTGTGCAA | 1.11 |
| TGCATCGTAA | 1.05 |
| ATTTGAGTGA | 0.984 |

| Sequence | switch fluorescence ratio |
| --- | --- |
| TCACGTCAAC | 1.36 |
| CCTTTGCGCC | 1.96 |
| TATCATACG | 1.04 |
| AAAGCAAGCC | 2.22 |
| CGGAGTTAGG | 0.99 |
| CACGTGTTAC | 1.17 |
| GGTAGAACAT | 0.984 |
| ATAATAATCA | 0.977 |
| GGTTAGACGT | 0.986 |
| CCTCTCGTAT | 2.55 |
| TGTCGGTAAC | 1.01 |
| TGCTTCGCTG | 1.16 |
| TTAGCTCGTG | 0.982 |
| AGGAAAAAGA | 0.976 |
| GTATAATGG | 1.02 |
| ATAATGGGT | 1.03 |
| GCCGCACCTG | 0.995 |
| TAGAGGTTTA | 0.981 |
| TATCTATTC | 0.943 |
| CACAGGAATG | 1.02 |
| TACACGGCTC | 1.03 |
| AGGCGGGGAC | 1.01 |
| AGCTAATT | 0.987 |

| Sequence | switch fluorescence ratio |
| --- | --- |
| TAATCACGGA | 1.03 |
| TCGCTAGACC | 1.36 |
| CCGGTAGTAG | 1.23 |
| TGCAGGGGG | 1.01 |
| ATAACCAGA | 1.01 |
| TTGGGCAGAT | 1.09 |
| AGATTCACAG | 1.01 |
| AACCCGATTT | 1.02 |
| ATACTGATAC | 1.27 |
| AGTTTGTAA | 1.02 |
| GAGAGTCTGC | 0.991 |
| GGTCCGCGCT | 1.14 |
| ACACAGTCGA | 0.992 |
| GCGTGGATGG | 1 |
| TTAGAATGTT | 0.997 |
| ATGGGTCTGA | 0.934 |
| AGTTCCAGTT | 0.979 |
| TATATCTATT | 1.04 |
| TAGAAATAT | 1.13 |
| TTGTGACGTC | 1.03 |
| ACGGCTGATC | 1.05 |
| CACAGTATAA | 1.06 |
| AGGATAAAGC | 0.999 |

| Sequence | switch fluorescence ratio |
| --- | --- |
| TAGGATAGGT | 1.01 |
| CGGCGGATCG | 0.997 |
| TTTGCCTAAG | 1.03 |
| GCCGCCGCCC | 1.24 |
| TTAGTGCATG | 0.992 |
| TCCCTACTCA | 1.09 |
| ACTATCCGGC | 1.02 |
| TTAGGGGCTG | 0.948 |
| GTCGAAAATA | 0.998 |
| AGGAGGGTGT | 1.11 |
| GTACAAGATT | 1.03 |
| TGTTGAGAAT | 0.974 |
| TTCCTTTAAT | 0.983 |
| TTGTCACACA | 0.925 |
| CGCATCGGCG | 1.04 |
| TGTCATTCAG | 0.981 |
| CCTTCCCCCT | 1.69 |
| ATCGCTCAGC | 1.06 |
| CATTAGTATC | 0.951 |
| GAGATGCACG | 1.07 |
| TGACTTGGGA | 1.03 |
| CTCTCAGTAG | 1.21 |
| GTGTTTAGCG | 0.97 |

| Sequence | switch fluorescence ratio |
| --- | --- |
| GTAGTCCGCA | 3.83 |
| GGCGCGGTCA | 0.962 |
| GCTTCGATGT | 1.04 |
| TGAGGTTCG | 0.95 |
| AGCTAACTCA | 1.09 |
| TTGGATTTGT | 1.01 |
| TTGACGTAGT | 1.01 |
| AATCACCCCC | 1.83 |
| GGGGTAGACG | 0.988 |
| TGAGAGTTCG | 0.981 |
| ATCGGTAGTC | 0.978 |
| TCCTAATTGT | 1.03 |
| GACAAAGCTC | 1.19 |
| ATCTACGGGC | 1.07 |
| AAATGGGATC | 1.01 |
| GGGACGGGAC | 1.09 |
| GCGGTGTACA | 1.08 |
| TGTTATGCAT | 1.08 |
| CCAATATCAG | 0.998 |
| AGGGATTCTG | 0.974 |
| CATCGGATC | 1.03 |
| TGCTTCCACT | 1.02 |
| AAGGGGGCA | 0.989 |

| Sequence | switch fluorescence ratio |
| --- | --- |
| GGTAGCTCCA | 1.02 |
| TGACCCCGGA | 1.03 |
| AAAAAGGAGT | 0.974 |
| CTATTTGGTG | 1.01 |
| TAGTGAGCAC | 0.988 |
| ACGCCGTGAC | 1.28 |
| GGTTAATCTG | 1.03 |
| GAGTTGCCA | 1.03 |
| TGGTGGATAA | 1.02 |
| AAACGGTATG | 1 |
| GAACACGCGA | 1.31 |
| GCGGTAGCTG | 0.973 |
| AGGGTCAGAC | 1.01 |
| ATTTGGGCGT | 1 |
| AGCCCGTTAT | 1.01 |
| AGCCCTTCTC | 1.29 |
| GCGATCCTAT | 0.986 |
| TCAGCGTTAG | 1.04 |
| GGCTAAACGA | 1.04 |
| ATCAAACTGG | 1.01 |
| TGGAAATGGG | 0.974 |
| GTCCACTTCG | 1.02 |
| ATTTTATTA | 1.02 |

| Sequence | switch fluorescence ratio |
| --- | --- |
| TATGGTGTTG | 0.965 |
| GTGATTATAT | 0.963 |
| TCATACATAA | 1.07 |
| GTCACGGCGT | 0.998 |
| CGACGAAACA | 1.07 |
| GATTAATCCA | 1.01 |
| ATCATGGGGC | 0.935 |
| GCATCGAAGG | 1.02 |
| AACCGTCCGA | 2.54 |
| CGCAAAATGC | 3.15 |
| ATCAATCGT | 1.01 |
| GGGGAGTGTA | 1.01 |
| TCTCGTCGGT | 0.994 |
| CCGAGGTTAG | 1.56 |
| TGGATAACAT | 1.01 |
| GGTTGGAA | 0.996 |
| CCATGTATC | 0.996 |
| TAGTTGTATA | 1.01 |
| CGCTCTCCCT | 3.04 |
